Assay [1] has as its system H9 teratoma-derived LAM model cells, TSC2-/-. Kind of assay: percent SyTOX+ dead cells; higher = more cytotoxic. The settings on record: 5 µM, treatment time 72 h, culture: 3D hyaluronic acid hydrogel.
The test system of assay [2] is H9 teratoma-derived LAM model cells, WT. The assay can be described thus: percent SyTOX+ dead cells; higher = more cytotoxic. To be noted: 5 µM, treatment time 72 h, culture: 3D hyaluronic acid hydrogel, genotype: WT.
In assay [3] the test system is H9 teratoma-derived LAM model cells, TSC2-/-. The assay can be described thus: percent of cells invaded past median invasion distance of vehicle control; LAM is lymphangioleiomyomatosis; the cells come from teratomas of the human stem cell line H9; higher = more invasion; extreme values may be limits of the assay. To be noted: 5 µM, treatment time 72 h, culture: 3D hyaluronic acid hydrogel.
The subject of assay [4] is H9 teratoma-derived LAM model cells, WT. The description is as above. The settings on record: 5 µM, treatment time 72 h, culture: 3D hyaluronic acid hydrogel, genotype: WT.

The other results are listed elsewhere or left out. Single values are uncertain, as repeats are few or missing.
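Throughout, for percent SyTOX+ dead cells: cells seeded atop a hyaluronic acid gel crosslinked via MMP-cleavable peptides, containing vitronectin peptides and methylcellulose, imaged live by high-content microscopy with automated analysis, one technical replicate per compound.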
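Throughout, for percent of cells invaded past median invasion distance of vehicle control: live cells imaged by high content microscopy and scored with in-house automated image analysis, one technical replicate per compound in each genotype and rapamycin condition.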

For the molecule `O=C(O)CCCc1ccc(N(CCCl)CCCl)cc1` [Chlorambucil; NSC-3088; Leukeran], the “percent SyTOX+ dead cells” value amounted to 4.88% in assay [1] (rapamycin 0 nM), 15% in assay [1] (rapamycin 20 nM), 12% in assay [2] (rapamycin 0 nM) and 13.3% in assay [2] (rapamycin 20 nM). For the same molecule, the percent amounted to 63% in assay [3] (rapamycin 0 nM), 47.6% in assay [3] (rapamycin 20 nM), 60.3% in assay [4] (rapamycin 0 nM) and 56.8% in assay [4] (rapamycin 20 nM).

`CCn1cnc2c(Nc3cccc(Cl)c3)nc(N[C@@H]3CCCC[C@@H]3N)nc21`: the “percent SyTOX+ dead cells” value is 33.3% in assay [1] (rapamycin 0 nM), 17.2% in assay [1] (rapamycin 20 nM), 34.4% in assay [2] (rapamycin 0 nM) and 39.8% in assay [2] (rapamycin 20 nM). For the same molecule, the percent in assay [3] (rapamycin 0 nM) was found to be 4.88%; in assay [3] (rapamycin 20 nM), 13.9%; in assay [4] (rapamycin 0 nM) it was 0.64%; in assay [4] (rapamycin 20 nM), 0%.

Consider `CN(C)NC(=O)CCC(=O)O` [Daminozide], for which the “percent SyTOX+ dead cells” value worked out at 31.4% in assay [1] (rapamycin 0 nM), 28.6% in assay [1] (rapamycin 20 nM), 22.3% in assay [2] (rapamycin 0 nM) and 24.3% in assay [2] (rapamycin 20 nM). In addition, the percent turned out to be 2.27% in assay [3] (rapamycin 0 nM), 2.82% in assay [3] (rapamycin 20 nM), 15.1% in assay [4] (rapamycin 0 nM) and 8.23% in assay [4] (rapamycin 20 nM).

As for `CC(=O)c1c(O)c(C)c(O)c(Cc2c(O)c3c(c(C(=O)/C=C/c4ccccc4)c2O)OC(C)(C)C=C3)c1O` [Rottlerin], the “percent SyTOX+ dead cells” value is 13.8% in assay [1] (rapamycin 0 nM), 8.1% in assay [1] (rapamycin 20 nM), 20% in assay [2] (rapamycin 0 nM) and 1.71% in assay [2] (rapamycin 20 nM). The percent stood at 0% in assay [3] (rapamycin 0 nM), 30.3% in assay [3] (rapamycin 20 nM), 0% in assay [4] (rapamycin 0 nM) and 3.08% in assay [4] (rapamycin 20 nM).

Take `O=C1NC(=O)c2c1c1c3ccccc3n3c1c1c2c2ccccc2n1[C@H]1CC[C@@H]3O1`: the “percent SyTOX+ dead cells” value in assay [1] (rapamycin 0 nM) came out at 13.4%; in assay [1] (rapamycin 20 nM), 12.1%; in assay [2] (rapamycin 0 nM), 18.8%; in assay [2] (rapamycin 20 nM), 15.9%. For the same molecule, the percent in assay [3] (rapamycin 0 nM) came to 9.62%; in assay [3] (rapamycin 20 nM) it was 3.46%; in assay [4] (rapamycin 0 nM), 8.27%; in assay [4] (rapamycin 20 nM), 7.57%.

Turning to `CCC(=O)CCCCC[C@@H]1NC(=O)[C@H]2CCCCN2C(=O)[C@H]([C@@H](C)CC)NC(=O)[C@H](Cc2cn(OC)c3ccccc23)NC1=O` [Apicidin A, OSI-2040], the “percent SyTOX+ dead cells” value in assay [1] (rapamycin 0 nM) worked out at 10.6%; in assay [1] (rapamycin 20 nM) it was 12.6%; in assay [2] (rapamycin 0 nM), 14.5%; in assay [2] (rapamycin 20 nM), 12.7%. For the same molecule, the percent in assay [3] (rapamycin 0 nM) was found to be 55.5%; in assay [3] (rapamycin 20 nM), 50%; in assay [4] (rapamycin 0 nM) it was 33%; in assay [4] (rapamycin 20 nM) it was 32.8%.

With `O=c1[nH]c2ccc(Cl)cc2c(N[C@@H]2CN3CCC2CC3)c1-c1nc2ccccc2[nH]1`, the “percent SyTOX+ dead cells” value in assay [1] (rapamycin 0 nM) was determined as 42.2%; in assay [1] (rapamycin 20 nM) it was 36.2%; in assay [2] (rapamycin 0 nM), 12.6%; in assay [2] (rapamycin 20 nM), 62.1%. Moreover, the percent is 0.92% in assay [3] (rapamycin 0 nM), 24.4% in assay [3] (rapamycin 20 nM), 1.57% in assay [4] (rapamycin 0 nM) and 0.77% in assay [4] (rapamycin 20 nM).

For the molecule `Cn1cc(C2=C(c3cn(C4CCN(Cc5ccccn5)CC4)c4ccccc34)C(=O)NC2=O)c2ccccc21`, the “percent SyTOX+ dead cells” value was determined as 90.5% in assay [1] (rapamycin 0 nM), 72.6% in assay [1] (rapamycin 20 nM), 81.5% in assay [2] (rapamycin 0 nM) and 75.3% in assay [2] (rapamycin 20 nM). The percent in assay [3] (rapamycin 0 nM) is 37.8%; in assay [3] (rapamycin 20 nM), 41.9%; in assay [4] (rapamycin 0 nM), 27.9%; in assay [4] (rapamycin 20 nM) it was 45.9%.

Consider `CCCC1COC(Cn2cncn2)(c2ccc(Cl)cc2Cl)O1` (stereo not given) [Propiconazole], for which the “percent SyTOX+ dead cells” value in assay [1] (rapamycin 0 nM) is 12.4%; in assay [1] (rapamycin 20 nM) it was 10.1%; in assay [2] (rapamycin 0 nM), 6.81%; in assay [2] (rapamycin 20 nM), 9.09%. Besides, the percent in assay [3] (rapamycin 0 nM) came to 52.5%; in assay [3] (rapamycin 20 nM), 31.7%; in assay [4] (rapamycin 0 nM), 65%; in assay [4] (rapamycin 20 nM), 44.4%.

Regarding `CN[C@@H]1C[C@H]2O[C@@](C)([C@@H]1OC)n1c3ccccc3c3c4c(c5c6ccccc6n2c5c31)C(=O)NC4` [Staurosporine], the “percent SyTOX+ dead cells” value was determined as 44.9% in assay [1] (rapamycin 0 nM), 36.8% in assay [1] (rapamycin 20 nM), 34.1% in assay [2] (rapamycin 0 nM) and 34.7% in assay [2] (rapamycin 20 nM). Moreover, the percent in assay [3] (rapamycin 0 nM) came to 0%; in assay [3] (rapamycin 20 nM), 1.62%; in assay [4] (rapamycin 0 nM) it was 0%; in assay [4] (rapamycin 20 nM), 0.59%.

Take `C[C@@H]1O[C@@H](O[C@H]2CC[C@]3(C=O)[C@H]4CC[C@]5(C)[C@@H](C6=CC(=O)OC6)CC[C@]5(O)[C@@H]4CC[C@]3(O)C2)[C@H](O)[C@H](O)[C@H]1O` [Convallatoxin]: the “percent SyTOX+ dead cells” value was determined as 19.8% in assay [1] (rapamycin 0 nM), 15.7% in assay [1] (rapamycin 20 nM), 19% in assay [2] (rapamycin 0 nM) and 14.9% in assay [2] (rapamycin 20 nM). Further, the percent in assay [3] (rapamycin 0 nM) amounted to 84.2%; in assay [3] (rapamycin 20 nM) it was 74.5%; in assay [4] (rapamycin 0 nM) it was 67.2%; in assay [4] (rapamycin 20 nM) it was 73.4%.

In the case of `c1ccc2c(c1)[I+]c1ccccc1-2` [Diphenyleneiodonium chloride, DPI], the “percent SyTOX+ dead cells” value in assay [1] (rapamycin 0 nM) turned out to be 7.86%; in assay [1] (rapamycin 20 nM), 12.2%; in assay [2] (rapamycin 0 nM) it was 16.4%; in assay [2] (rapamycin 20 nM) it was 11%. For the same molecule, the percent in assay [3] (rapamycin 0 nM) came out at 41.5%; in assay [3] (rapamycin 20 nM), 30.8%; in assay [4] (rapamycin 0 nM), 33.3%; in assay [4] (rapamycin 20 nM) it was 35.6%.

For the molecule `O=C1Nc2ccc3ncsc3c2/C1=C/c1cnc[nH]1` [Imidazolo-oxindole PKR inhibitor C16], the “percent SyTOX+ dead cells” value in assay [1] (rapamycin 0 nM) stood at 26.9%; in assay [1] (rapamycin 20 nM), 36.2%; in assay [2] (rapamycin 0 nM) it was 36.8%; in assay [2] (rapamycin 20 nM), 30.7%. Moreover, the percent in assay [3] (rapamycin 0 nM), in assay [3] (rapamycin 20 nM), in assay [4] (rapamycin 0 nM) and in assay [4] (rapamycin 20 nM) was 0% each time.

Regarding `CCN1CCN(C(=O)Cc2ccc(Nc3ncc(F)c(Nc4ccc(C(=O)Nc5ccccc5Cl)cc4)n3)cc2)CC1` [Aurora A Inhibitor I], the “percent SyTOX+ dead cells” value in assay [1] (rapamycin 0 nM) came out at 6.76%; in assay [1] (rapamycin 20 nM) it was 2.72%; in assay [2] (rapamycin 0 nM) it was 17.1%; in assay [2] (rapamycin 20 nM), 12.6%. Further, the percent is 89.4% in assay [3] (rapamycin 0 nM), 76.7% in assay [3] (rapamycin 20 nM), 85% in assay [4] (rapamycin 0 nM) and 54.9% in assay [4] (rapamycin 20 nM).

For `COc1ccc2c(c[n+](C)c3c4cc5c(cc4ccc23)OCO5)c1OC` [Chelerythrine chloride], the “percent SyTOX+ dead cells” value came to 8.92% in assay [1] (rapamycin 0 nM), 9.42% in assay [1] (rapamycin 20 nM), 35.4% in assay [2] (rapamycin 0 nM) and 21.1% in assay [2] (rapamycin 20 nM). The percent in assay [3] (rapamycin 0 nM) came out at 66.9%; in assay [3] (rapamycin 20 nM), 23.6%; in assay [4] (rapamycin 0 nM) it was 6.15%; in assay [4] (rapamycin 20 nM), 31.1%.

The values above are taken from the supplement of paper PMC10502849.
